Read counts after selection give these values, which scatter widely.
system: NB7; assay: fold depletion of shRNA, plasmid library share / infected cells without Dox share (9 days) (ratio); higher = more depleted after infection (more toxic, leaky expression from a Tet-inducible vector; NB7 is a neuroblastoma line without caspase-8); conditions: shRNA pool: CD95L ORF + CD95L 3'UTR + Venus libraries
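Also: shRNA barcodes quantified by deep sequencing of PCR amplicons from cellular DNA, counts expressed as percent of each subpool, ratio averaged over two biological duplicates.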

Sequence | fold depletion of shRNA
TCAATGAAACTGGGCTGTACT | 1.26
TCAATTACCCATATCCCCAGA | 2.11
TCAATTTTGAGGAATCTCAGA | 0.931
TCACATGGTCCTGCTGGAGTT | 4.82
TCACCGCCGACAAGCAGAAGA | 0.994
TCACCGGGGTGGTGCCCATCC | 2.66
TCACCTAATGTTTATGAGCCA | 15.2
TCACCTCTCAAGGTGGGCCTT | 0.799
TCACTCTCGGCATGGACGAGC | 1.47
TCACTTCTAAATGCATATCCT | 1.72
TCAGACGTTTTTCGGCTTATA | 2.98
TCAGCGTGTCCGGCGAGGGCG | 0.535
TCAGCTACTAATGATGTTTTC | 1.26
TCAGCTCTTCCACCTACAGAA | 1.51
TCAGTGAGGGTCTTCTTACAT | 27.8
TCATCTTTGGAGAAGCAAATA | 2.53
TCATGGTTCTGGTTGCCTTGG | 1.87
TCATTCCTAACACAGCATGTG | 1.85
TCATTGATTGTCAGCTACTAA | 0.558
TCATTTATATGTCAACGTATC | 0.619
TCATTTCATTCCTAACACAGC | 2.82
TCCAAAGTATACTTCCGGGGT | 1.68
TCCAACTCAAGGTCCATGCCT | 3.58
TCCACCCCCTGAAAAAAAGGA | 2
TCCACCTACAGAAGGAGCTGG | 3.05
TCCACTACCGCTGCCACCCCT | 14.6

Sequence | fold depletion of shRNA
TCCAGGAGCGCACCATCTTCT | 6.58
TCCAGGCACAGTTCTTCCCTG | 2.87
TCCAGTGCAATTGTAGGGGTG | 1.71
TCCATGCCTCTGGAATGGGAA | 1.86
TCCATTATGATTCTTTGTTAC | 1.14
TCCCCAGATCTACTGGGTGGA | 2.32
TCCCTGGGCCCCTCCAGGCAC | 1.89
TCCGCCACAACATCGAGGACG | 0.728
TCCGCCATGCCCGAAGGCTAC | 2.36
TCCGCCCTGAGCAAAGACCCC | 1.88
TCCGGCGAGGGCGAGGGCGAT | 0.702
TCCGGGGTCAATCTTGCAACA | 2.7
TCCTAACACAGCATGTGTATT | 1.45
TCCTATAATATAATAAATATT | 0.884
TCCTCAACTCACCTAATGTTT | 1.03
TCCTGACAATCAACTCTAATA | 2.16
TCCTGAGCCATCGGTGAAACT | 2.6
TCCTGCTGGAGTTCGTGACCG | 0.818
TCCTGCTTTCTGGAGTGAAGT | 1.75
TCCTGGGGCACAAGCTGGAGT | 2
TCCTGGTCGAGCTGGACGGCG | 1.13
TCCTTGTGATGTTTTTCATGG | 1.19
TCGACTTCAAGGAGGACGGCA | 1.97
TCGAGCTGAAGGGCATCGACT | 3.06
TCGAGCTGGACGGCGACGTAA | 1.38
TCGAGGACGGCGGCGTGCAGC | 0.224

Sequence | fold depletion of shRNA
TCGAGGGCGACACCCTGGTGA | 1.06
TCGCCCGCTACCCCGACCACA | 0.7
TCGCCGACCACTACCAGCAGA | 0.775
TCGGCATGGACGAGCTGTACA | 1.5
TCGGCGACGGCCCCGTGCTGC | 0.531
TCGGTGAAACTAACAGATAAG | 0.655
TCGTGACCACCCTGGGCTACG | 1.25
TCGTGACCGCCGCCGGGATCA | 0.433
TCTAAATGCATATCCTGAGCC | 5.19
TCTAAGTATCCCCAGGATCTG | 3.01
TCTAATAGTGCTTAAAAATCA | 0.721
TCTACACTCATCTTAGTGCCT | 1.77
TCTACATGAGGAACTCTAAGT | 0.954
TCTACCAGCCAGATGCACACA | 0.976
TCTATATCACCGCCGACAAGC | 0.59
TCTCAAGGTGGGCCTTGCTAC | 2.61
TCTCAGACGTTTTTCGGCTTA | 2.12
TCTCCTTGTGATGTTTTTCAT | 1.06
TCTCGGCATGGACGAGCTGTA | 1.8
TCTCTCTGGTCAATTTTGAGG | 1.53
TCTCTGGTCAATTTTGAGGAA | 0.992
TCTGAGCTCTCTCTGGTCAAT | 2.24
TCTGCACCACCGGCAAGCTGC | 1.1
TCTGGAATGGGAAGACACCTA | 1.85
TCTGGAGTGAAGTATAAGAAG | 0.587

same assay, conditions: shRNA pool: CD95 ORF + CD95 3'UTR + Venus libraries

Sequence | fold depletion of shRNA
TCAATGAAGCCAAAATAGATG | 0.342
TCAATTGTGAATTCACATAGA | 0.701
TCACATAGAAAACATTAAATT | 0.827
TCACATGGTCCTGCTGGAGTT | 3.13
TCACCAAAAAATACTTAATAG | 1.2
TCACCACTATTGCTGGAGTCA | 1.25
TCACCAGCAACACCAAGTGCA | 0.742
TCACCGCCGACAAGCAGAAGA | 0.816

From the supplement of paper PMC5655136
